This is one part of the list. The energies were worked out here from pooled read counts, against the library average; single values are noisy.

In this experiment the target is T1, Pho4 (S. cerevisiae) (UniProt P07270).
T1 sequence: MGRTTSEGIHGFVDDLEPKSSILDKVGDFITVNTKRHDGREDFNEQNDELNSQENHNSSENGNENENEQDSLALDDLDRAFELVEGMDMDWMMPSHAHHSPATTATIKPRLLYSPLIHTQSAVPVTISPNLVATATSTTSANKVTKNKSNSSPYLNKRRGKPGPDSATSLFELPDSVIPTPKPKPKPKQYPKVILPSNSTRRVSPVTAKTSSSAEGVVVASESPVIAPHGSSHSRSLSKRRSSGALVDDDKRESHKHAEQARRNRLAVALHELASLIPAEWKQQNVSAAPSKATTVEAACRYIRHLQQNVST
Briefly: relative binding free energy (BET-seq); higher = weaker binding. Particulars: reference: library average.
For GATAGCACGTGGAGTA, the “relative binding free energy” value was 0.08 kcal/mol. Take TCGTTCACGTGTATTA: the “relative binding free energy” value stood at 0.29 kcal/mol. As for TCTTTCACGTGGTGTG, the “relative binding free energy” value amounted to 0.29 kcal/mol.

With AGACGCACGTGTGTGT, the “relative binding free energy” value is -0.04 kcal/mol.

Turning to CACGTCACGTGGGTTG, the “relative binding free energy” value is -0.12 kcal/mol. The value for GAGGTCACGTGTTTCT was 0.18 kcal/mol; that for TTGTTCACGTGGTTAC was 0.13 kcal/mol. The value for AGTGACACGTGAGGCT was 0.21 kcal/mol; that for GTCGTCACGTGTTTTA was 0.14 kcal/mol; that for ATGGTCACGTGTGGTG was 0.16 kcal/mol. For TGCTTCACGTGTATTT, the “relative binding free energy” value came out at 0.23 kcal/mol. The value for TCAGGCACGTGGAAGG was -0.05 kcal/mol; that for ACTGGCACGTGGAGGA was -0.13 kcal/mol. Next, TTTTGCACGTGGAAAT: 0.16 kcal/mol. The value for TGTTTCACGTGCAAGA was 0.33 kcal/mol; that for TTAGACACGTGAGGAT was 0.31 kcal/mol; that for TTGCACACGTGGTGAT was -0.07 kcal/mol. Consider TCGAGCACGTGTGGAG, for which the “relative binding free energy” value was determined as 0.07 kcal/mol. As to TATTGCACGTGAAATT, the “relative binding free energy” value worked out at 0.19 kcal/mol. The value for CCGGGCACGTGGGGCT was -0.24 kcal/mol; that for GGCAGCACGTGGGTAG was -0.16 kcal/mol; that for TGGGCCACGTGTATTG was -0.11 kcal/mol.

As to CAGGTCACGTGCGGTT, the “relative binding free energy” value amounted to 0.1 kcal/mol.

With TAATGCACGTGGTGTG, the “relative binding free energy” value was -0.12 kcal/mol.

As for ATTGTCACGTGTTACG, the “relative binding free energy” value stood at 0.04 kcal/mol.

Consider TCTTGCACGTGCAGTG, for which the “relative binding free energy” value turned out to be 0.08 kcal/mol. In the case of ACTATCACGTGTTTGG, the “relative binding free energy” value stood at 0.02 kcal/mol.

ATTAACACGTGATTAG: the “relative binding free energy” value was found to be 0.11 kcal/mol. In the case of TTAATCACGTGAGTGC, the “relative binding free energy” value is 0.35 kcal/mol. Next, CCCGGCACGTGGGGGT: -0.29 kcal/mol; TTACTCACGTGGTCGT: 0.32 kcal/mol; CGATTCACGTGGCTTG: 0.3 kcal/mol. As to TTGTTCACGTGATGAC, the “relative binding free energy” value amounted to 0.33 kcal/mol. Next, AAGAGCACGTGGTGGC: -0.14 kcal/mol; TGAGTCACGTGAGGGG: 0.26 kcal/mol; TACGTCACGTGGTGCT: 0.01 kcal/mol. Turning to GGGTTCACGTGGGACG, the “relative binding free energy” value was 0.29 kcal/mol. Next, ATGTCCACGTGGGTGT: -0.3 kcal/mol; TTTTCCACGTGTGAGT: 0.1 kcal/mol. As for CATGGCACGTGAGTTG, the “relative binding free energy” value is 0.16 kcal/mol. For the sequence GGTCGCACGTGAGGGA, the “relative binding free energy” value is -0.02 kcal/mol. The value for CTTTGCACGTGTATGA was 0.01 kcal/mol; that for GGGTTCACGTGTGAAC was 0.3 kcal/mol; that for ATTGGCACGTGGGTGG was -0.14 kcal/mol. For the sequence CGCTACACGTGTGTGG, the “relative binding free energy” value was 0.04 kcal/mol.

In the case of GGCGTCACGTGATTTA, the “relative binding free energy” value was determined as 0.36 kcal/mol. For CGGTGCACGTGTTGGG, the “relative binding free energy” value amounted to 0.08 kcal/mol. The value for TAAGGCACGTGGGATA was -0.21 kcal/mol; that for AGTGCCACGTGCGTTT was -0.06 kcal/mol. The value for AATGCCACGTGGGGTG was -0.26 kcal/mol; that for TGCAGCACGTGTGGTT was 0.06 kcal/mol; that for TTCGTCACGTGGAGAG was 0.07 kcal/mol. Take AAGGGCACGTGGCGGG: the “relative binding free energy” value was -0.17 kcal/mol. Next, AGGTACACGTGGGCGT: 0 kcal/mol.

Turning to GATTCCACGTGTTATT, the “relative binding free energy” value is 0.21 kcal/mol.

As for TATAGCACGTGGAGAT, the “relative binding free energy” value is -0.13 kcal/mol. The value for GAGGCCACGTGTAGTG was 0.07 kcal/mol. The value for TTGGACACGTGATTCG was 0.21 kcal/mol; that for TTGGACACGTGGCGGC was 0.03 kcal/mol; that for TTATTCACGTGTACGG was 0.3 kcal/mol. For CGGTACACGTGGGGAG, the “relative binding free energy” value was determined as 0.05 kcal/mol. Turning to GTGGACACGTGAGGCG, the “relative binding free energy” value was determined as 0.36 kcal/mol. The value for CTAGGCACGTGGATTT was 0.01 kcal/mol.

For the origin of these results see the BET-seq Pho4 binding data (Le et al. 2018).
